The list shows a part of the results.
Target: T1, MBP-FoxP1dN (Mus musculus, UniProt P58462 326-579)
T1 sequence: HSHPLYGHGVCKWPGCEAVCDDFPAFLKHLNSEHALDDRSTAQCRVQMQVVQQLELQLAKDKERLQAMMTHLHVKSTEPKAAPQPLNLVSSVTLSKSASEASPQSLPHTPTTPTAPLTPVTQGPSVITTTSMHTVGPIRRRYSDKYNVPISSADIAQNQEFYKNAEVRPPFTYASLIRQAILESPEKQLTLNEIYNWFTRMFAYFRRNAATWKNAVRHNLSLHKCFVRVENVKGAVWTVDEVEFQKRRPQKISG
Experiment: PD-seq (MBP pull-down with sequencing); 20 mM Tris-HCl pH 7.5, 100 mM NaCl, 1.5 mM MgCl2, 0.4 uM protein, 0.1 uM dsDNA library, 30 min, room temperature, amylose pull-down; high values mean tight binding
Conditions: protein: recombinant; tags: His6-MBP; chain copies: 2; dsDNA, one strand shown
Procedure, shortened: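 Protein and DNA were mixed at 0.4 µM and 0.1 µM and held for 30 min at room temperature in Tris pH 7.5 buffer with NaCl and MgCl2; the protein was a His6-MBP-tagged, N-terminally truncated mouse FoxP3 or FoxP1 fragment from E. coli, and the DNA a Klenow-filled double-stranded degenerate library. Amylose resin captured the complexes, which were washed three times. Binding is read as reads-per-million enrichment of pull-down versus input after Illumina sequencing, with replicates pooled.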

Sequence	binding signal
GATGATTGTTCTCCCAGCTGATGAATTCCGGTTGTCGAGTAAACAAATTTTCCTAATCTTTCTGTTCAAGCGCCATCTAC	1.05 RPM ratio (pull-down/input)
GATGATTGTTCTCCCAGCTGATGAATTGGACCTCTCGAGTAAACAAATTTTCCTAATCTTTCTGTTCAAGCGCCATCTAC	0.763 RPM ratio (pull-down/input)
GATGATTGTTCTCCCAGCTGATGAATTAAAACGGTCGAGTAAACAAATTTTCCTAATCTTTCTGTTCAAGCGCCATCTAC	0.869 RPM ratio (pull-down/input)
GATGATTGTTCTCCCAGCTGATGAATTTCCGGAATCGAGTAAACAAATTTTCCTAATCTTTCTGTTCAAGCGCCATCTAC	0.872 RPM ratio (pull-down/input)
GATGATTGTTCTCCCAGCTGATGAATTAATCTGTTCGAGTAAACAAATTTTCCTAATCTTTCTGTTCAAGCGCCATCTAC	0.867 RPM ratio (pull-down/input)
GATGATTGTTCTCCCAGCTGATGAATTGTCTGATTCGAGTAAACAAATTTTCCTAATCTTTCTGTTCAAGCGCCATCTAC	1 RPM ratio (pull-down/input)
GATGATTGTTCTCCCAGCTGATGAATTGTGTATATCGAGTAAACAAATTTTCCTAATCTTTCTGTTCAAGCGCCATCTAC	1.9 RPM ratio (pull-down/input)
GATGATTGTTCTCCCAGCTGATGAATTCTCCAGGTCGAGTAAACAAATTTTCCTAATCTTTCTGTTCAAGCGCCATCTAC	0.76 RPM ratio (pull-down/input)
GATGATTGTTCTCCCAGCTGATGAATTCTTGGAGTCGAGTAAACAAATTTTCCTAATCTTTCTGTTCAAGCGCCATCTAC	0.857 RPM ratio (pull-down/input)
GATGATTGTTCTCCCAGCTGATGAATTTTTACCCTCGAGTAAACAAATTTTCCTAATCTTTCTGTTCAAGCGCCATCTAC	0.917 RPM ratio (pull-down/input)
GATGATTGTTCTCCCAGCTGATGAATTTACGGATTCGAGTAAACAAATTTTCCTAATCTTTCTGTTCAAGCGCCATCTAC	1.24 RPM ratio (pull-down/input)
GATGATTGTTCTCCCAGCTGATGAATTCATTTGATCGAGTAAACAAATTTTCCTAATCTTTCTGTTCAAGCGCCATCTAC	0.905 RPM ratio (pull-down/input)
GATGATTGTTCTCCCAGCTGATGAATTTTGAAAATCGAGTAAACAAATTTTCCTAATCTTTCTGTTCAAGCGCCATCTAC	1.14 RPM ratio (pull-down/input)
GATGATTGTTCTCCCAGCTGATGAATTTTAAACGTCGAGTAAACAAATTTTCCTAATCTTTCTGTTCAAGCGCCATCTAC	0.934 RPM ratio (pull-down/input)
GATGATTGTTCTCCCAGCTGATGAATTGCCTAGCTCGAGTAAACAAATTTTCCTAATCTTTCTGTTCAAGCGCCATCTAC	0.861 RPM ratio (pull-down/input)
GATGATTGTTCTCCCAGCTGATGAATTTCAACTTTCGAGTAAACAAATTTTCCTAATCTTTCTGTTCAAGCGCCATCTAC	0.956 RPM ratio (pull-down/input)

Sequence	binding signal
GATGATTGTTCTCCCAGCTGATGAATTTGCTGGGTCGAGTAAACAAATTTTCCTAATCTTTCTGTTCAAGCGCCATCTAC	0.859 RPM ratio (pull-down/input)
GATGATTGTTCTCCCAGCTGATGAATTCCTTCGGTCGAGTAAACAAATTTTCCTAATCTTTCTGTTCAAGCGCCATCTAC	0.764 RPM ratio (pull-down/input)
GATGATTGTTCTCCCAGCTGATGAATTGCTACCCTCGAGTAAACAAATTTTCCTAATCTTTCTGTTCAAGCGCCATCTAC	0.958 RPM ratio (pull-down/input)
GATGATTGTTCTCCCAGCTGATGAATTGCCGATTTCGAGTAAACAAATTTTCCTAATCTTTCTGTTCAAGCGCCATCTAC	1.1 RPM ratio (pull-down/input)
GATGATTGTTCTCCCAGCTGATGAATTTCCAACGTCGAGTAAACAAATTTTCCTAATCTTTCTGTTCAAGCGCCATCTAC	0.861 RPM ratio (pull-down/input)
GATGATTGTTCTCCCAGCTGATGAATTTACTTTGTCGAGTAAACAAATTTTCCTAATCTTTCTGTTCAAGCGCCATCTAC	1.37 RPM ratio (pull-down/input)
GATGATTGTTCTCCCAGCTGATGAATTGGAAACATCGAGTAAACAAATTTTCCTAATCTTTCTGTTCAAGCGCCATCTAC	1.23 RPM ratio (pull-down/input)
GATGATTGTTCTCCCAGCTGATGAATTAACCGAGTCGAGTAAACAAATTTTCCTAATCTTTCTGTTCAAGCGCCATCTAC	0.791 RPM ratio (pull-down/input)
GATGATTGTTCTCCCAGCTGATGAATTCACATATTCGAGTAAACAAATTTTCCTAATCTTTCTGTTCAAGCGCCATCTAC	0.914 RPM ratio (pull-down/input)
GATGATTGTTCTCCCAGCTGATGAATTAGCTTACTCGAGTAAACAAATTTTCCTAATCTTTCTGTTCAAGCGCCATCTAC	0.938 RPM ratio (pull-down/input)
GATGATTGTTCTCCCAGCTGATGAATTCGATTGTTCGAGTAAACAAATTTTCCTAATCTTTCTGTTCAAGCGCCATCTAC	1.02 RPM ratio (pull-down/input)
GATGATTGTTCTCCCAGCTGATGAATTGGGCACGTCGAGTAAACAAATTTTCCTAATCTTTCTGTTCAAGCGCCATCTAC	0.834 RPM ratio (pull-down/input)
GATGATTGTTCTCCCAGCTGATGAATTGGAATTATCGAGTAAACAAATTTTCCTAATCTTTCTGTTCAAGCGCCATCTAC	0.944 RPM ratio (pull-down/input)
GATGATTGTTCTCCCAGCTGATGAATTAGATCAATCGAGTAAACAAATTTTCCTAATCTTTCTGTTCAAGCGCCATCTAC	1.04 RPM ratio (pull-down/input)
GATGATTGTTCTCCCAGCTGATGAATTGAGTATCTCGAGTAAACAAATTTTCCTAATCTTTCTGTTCAAGCGCCATCTAC	0.948 RPM ratio (pull-down/input)
GATGATTGTTCTCCCAGCTGATGAATTGGCATAGTCGAGTAAACAAATTTTCCTAATCTTTCTGTTCAAGCGCCATCTAC	0.946 RPM ratio (pull-down/input)
